# Measurements: the supplement of paper PMC8728848
# Some of the results follow.
# B1: FaeGac (Escherichia coli) (protein)
# chain: WMTGDFNGSVDIGGSITADDYRQKWEWKVGTGLNGFGNVLNDLTNGGTKLTITVTGNKPILLGRTKEAFATPVTGGVDGIPHIAFTDYEGASVVLRNPDGETNKKGLAYFVLPMKNAEGTKVGSVKVNASYAGVLGRGGVTSADGELLSLFADGLSSIFYGGLPRGSELSAGSAAAERTKLFGSLSRNDILGQIQRVNANITSLVDVAGSYRENMEYTDGTVVSAAYALGIANGQTIEATFNQAVTTSTQWSAPLNVAITYY
# Tests used:
# Assay in all cases: glycan array binding signal (z-score within array); higher = stronger binding
# Conditions in all cases: glycan notation: IUPAC condensed, linker removed
# [1] = biological target: Gal(b1-3)[Fuc(a1-4)]GlcNAc(b1-3)Gal(b1-4)[Fuc(a1-3)]GlcNAc
# How it was run: (§1)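 The Consortium for Functional Glycomics database supplied 3228 glycan arrays, of which those lacking an available protein sequence were dropped. The binding signal, a within-array Z-score, was averaged across arrays of the same protein sequence and across linkers. Negative scores can be read as non-binding.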
# [2] = biological target: Gal(b1-3)[GlcNAc(b1-6)]GalNAc
# How it was run: as §1
# [3] = biological target: Gal(b1-3)[Neu5Ac(a2-6)]GalNAc
# How it was run: as §1
# [4] = biological target: Gal(b1-3)[Neu5Ac(a2-6)]GlcNAc(b1-6)Gal(b1-4)Glc
# How it was run: as §1
# [5] = biological target: Gal(b1-3)[Neu5Ac(b2-6)]GalNAc
# How it was run: as §1
# [6] = biological target: Gal(b1-4)GalNAc(a1-3)[Fuc(a1-2)]Gal(b1-4)GlcNAc
# How it was run: as §1
# [7] = biological target: Gal(b1-4)GalNAc(b1-3)[Fuc(a1-2)]Gal(b1-4)GlcNAc
# How it was run: as §1
# Gal(b1-4)Glc = biological target: Gal(b1-4)Glc
# How it was run: as §1
# Gal(b1-4)Glc6S = biological target: Gal(b1-4)Glc6S
# How it was run: as §1
# Gal(b1-4)GlcNAc = biological target: Gal(b1-4)GlcNAc
# How it was run: as §1
# [8] = biological target: Gal(b1-4)GlcNAc(b1-2)Man(a1-3)[Gal(b1-4)GlcNAc(b1-2)Man(a1-6)]Man(b1-4)GlcNAc(b1-4)GlcNAc
# How it was run: as §1
# [9] = biological target: Gal(b1-4)GlcNAc(b1-3)Gal(b1-4)Glc
# How it was run: as §1
# [10] = biological target: Gal(b1-4)GlcNAc(b1-3)Gal(b1-4)GlcNAc
# How it was run: as §1
# [11] = biological target: Gal(b1-4)GlcNAc(b1-3)Gal(b1-4)GlcNAc(b1-3)Gal(b1-4)GlcNAc
# How it was run: as §1
# [12] = biological target: Gal(b1-4)GlcNAc(b1-3)Gal(b1-4)[Fuc(a1-3)]GlcNAc(b1-3)Gal(b1-4)[Fuc(a1-3)]GlcNAc
# How it was run: as §1
# [13] = biological target: Gal(b1-4)GlcNAc(b1-3)GalNAc
# How it was run: as §1
# [14] = biological target: Gal(b1-4)GlcNAc(b1-3)[Gal(b1-4)GlcNAc(b1-6)]GalNAc
# How it was run: as §1
# [15] = biological target: Gal(b1-4)GlcNAc(b1-6)Gal(b1-4)GlcNAc(b1-6)GalNAc
# How it was run: as §1
# [16] = biological target: Gal(b1-4)GlcNAc(b1-6)GalNAc
# How it was run: as §1
# [17] = biological target: Gal(b1-4)GlcNAc(b1-6)[Gal(b1-3)]GalNAc
# How it was run: as §1
# Gal3S(b1-3)GalNAc = biological target: Gal3S(b1-3)GalNAc
# How it was run: as §1
# Gal3S(b1-3)GlcNAc = biological target: Gal3S(b1-3)GlcNAc
# How it was run: as §1
# [18] = biological target: Gal3S(b1-3)[Fuc(a1-4)]GlcNAc
# How it was run: as §1
# Gal3S(b1-4)Glc = biological target: Gal3S(b1-4)Glc
# How it was run: as §1
# Gal3S(b1-4)Glc6S = biological target: Gal3S(b1-4)Glc6S
# How it was run: as §1
# Gal3S(b1-4)GlcNAc = biological target: Gal3S(b1-4)GlcNAc
# How it was run: as §1
# Gal3S(b1-4)GlcNAc6S = biological target: Gal3S(b1-4)GlcNAc6S
# How it was run: as §1
# Gal3S6S(b1-4)GlcNAc = biological target: Gal3S6S(b1-4)GlcNAc
# How it was run: as §1
# Gal3S6S(b1-4)GlcNAc6S = biological target: Gal3S6S(b1-4)GlcNAc6S
# How it was run: as §1
# Gal4S(b1-4)GlcNAc = biological target: Gal4S(b1-4)GlcNAc
# How it was run: as §1
# Gal4S6S(b1-4)GlcNAc = biological target: Gal4S6S(b1-4)GlcNAc
# How it was run: as §1
# Gal6S(b1-4)Glc = biological target: Gal6S(b1-4)Glc
# How it was run: as §1
# Gal6S(b1-4)Glc6S = biological target: Gal6S(b1-4)Glc6S
# How it was run: as §1
binder,measurement,setting,value
B1,glycan array binding signal (z-score),[1],0.284
same,glycan array binding signal (z-score),[2],0.764
same,glycan array binding signal (z-score),[3],0.292
same,glycan array binding signal (z-score),[4],-0.361
same,glycan array binding signal (z-score),[5],0.147
same,glycan array binding signal (z-score),[6],-0.154
same,glycan array binding signal (z-score),[7],-0.395
same,glycan array binding signal (z-score),Gal(b1-4)Glc,0.258
same,glycan array binding signal (z-score),Gal(b1-4)Glc6S,1.04
same,glycan array binding signal (z-score),Gal(b1-4)GlcNAc,-0.506
same,glycan array binding signal (z-score),[8],-0.258
same,glycan array binding signal (z-score),[9],0.611
same,glycan array binding signal (z-score),[10],0.019
same,glycan array binding signal (z-score),[11],-0.371
same,glycan array binding signal (z-score),[12],0.771
same,glycan array binding signal (z-score),[13],-0.616
same,glycan array binding signal (z-score),[14],-0.587
same,glycan array binding signal (z-score),[15],-0.536
same,glycan array binding signal (z-score),[16],-0.133
same,glycan array binding signal (z-score),[17],-0.003
same,glycan array binding signal (z-score),Gal3S(b1-3)GalNAc,-0.15
same,glycan array binding signal (z-score),Gal3S(b1-3)GlcNAc,-0.048
same,glycan array binding signal (z-score),[18],-0.218
same,glycan array binding signal (z-score),Gal3S(b1-4)Glc,0.35
same,glycan array binding signal (z-score),Gal3S(b1-4)Glc6S,0.303
same,glycan array binding signal (z-score),Gal3S(b1-4)GlcNAc,0.384
same,glycan array binding signal (z-score),Gal3S(b1-4)GlcNAc6S,0.005
same,glycan array binding signal (z-score),Gal3S6S(b1-4)GlcNAc,-0.64
same,glycan array binding signal (z-score),Gal3S6S(b1-4)GlcNAc6S,-0.43
same,glycan array binding signal (z-score),Gal4S(b1-4)GlcNAc,-0.253
same,glycan array binding signal (z-score),Gal4S6S(b1-4)GlcNAc,-0.495
same,glycan array binding signal (z-score),Gal6S(b1-4)Glc,-0.124
same,glycan array binding signal (z-score),Gal6S(b1-4)Glc6S,0.68
